In publication PMC4336329 (PLoS ONE, 2015):
The whole screen tested about 310,000 compounds, of which about 14,000 (4.5%) showed an effect of 50% or more. The effect is printed as a negative number. The list shows a part of the results.

Target: human ether-à-go-go-related gene (hERG) potassium channel (human, UniProt Q12809)
Assay: primary screen, population patch clamp on CHO cells stably expressing hERG
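Further: peak tail current of the secondary pulse compared with the same well before compound.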

human ether-à-go-go-related gene (hERG) potassium channel, sequence (Q12809 whole entry, looked up): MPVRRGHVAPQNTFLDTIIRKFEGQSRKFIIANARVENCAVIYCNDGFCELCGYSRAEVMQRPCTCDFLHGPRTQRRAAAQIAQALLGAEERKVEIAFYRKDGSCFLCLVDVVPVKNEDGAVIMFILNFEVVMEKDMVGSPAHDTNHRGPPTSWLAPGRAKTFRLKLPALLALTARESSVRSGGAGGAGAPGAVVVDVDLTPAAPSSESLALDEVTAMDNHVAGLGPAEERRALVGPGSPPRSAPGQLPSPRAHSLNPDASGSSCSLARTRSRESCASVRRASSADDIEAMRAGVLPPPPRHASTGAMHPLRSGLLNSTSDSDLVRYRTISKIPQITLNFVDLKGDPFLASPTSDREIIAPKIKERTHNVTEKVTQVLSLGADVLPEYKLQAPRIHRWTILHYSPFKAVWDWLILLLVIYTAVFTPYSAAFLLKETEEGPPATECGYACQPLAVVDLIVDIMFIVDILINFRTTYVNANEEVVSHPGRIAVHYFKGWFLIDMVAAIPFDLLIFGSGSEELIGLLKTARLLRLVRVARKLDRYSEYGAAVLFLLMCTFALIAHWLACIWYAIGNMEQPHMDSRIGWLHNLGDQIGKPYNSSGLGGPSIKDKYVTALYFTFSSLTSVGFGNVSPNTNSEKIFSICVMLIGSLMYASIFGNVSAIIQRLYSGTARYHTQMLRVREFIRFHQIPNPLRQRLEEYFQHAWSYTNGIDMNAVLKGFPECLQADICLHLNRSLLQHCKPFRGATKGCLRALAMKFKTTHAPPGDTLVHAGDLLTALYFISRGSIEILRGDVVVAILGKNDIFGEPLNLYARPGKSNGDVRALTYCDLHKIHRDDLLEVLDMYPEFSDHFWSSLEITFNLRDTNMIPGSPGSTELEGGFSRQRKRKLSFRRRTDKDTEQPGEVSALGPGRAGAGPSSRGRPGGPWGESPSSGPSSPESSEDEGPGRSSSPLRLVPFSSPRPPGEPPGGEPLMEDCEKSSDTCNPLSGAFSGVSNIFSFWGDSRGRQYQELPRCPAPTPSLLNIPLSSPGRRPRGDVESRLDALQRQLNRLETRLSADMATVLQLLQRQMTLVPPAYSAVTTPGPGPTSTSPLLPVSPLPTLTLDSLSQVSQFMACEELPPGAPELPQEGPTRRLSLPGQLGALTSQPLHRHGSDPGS

Structure (SMILES)	hERG current change (%, negative = inhibition) at 10uM
COc1ccc(S(=O)(=O)Nc2cc3c4c(c2)CCC(=O)N4CCC3)cc1	-15%
CCN(CC)S(=O)(=O)c1cccc(C(=O)OCC(=O)Nc2ccccc2OC(F)F)c1	-7.37%
Cc1ccc(/C=C2/C(=O)NC(=O)N(CCc3ccc(F)cc3)C2=O)s1	17.9%
Brc1ccc(OCCCN2CCOCC2)cc1.O=C(O)C(=O)O	-28.1%
Cc1ccc(CNC(=O)CC(C)S(=O)(=O)c2ccc3c(c2)NC(=O)C(C)S3)cc1 (stereo not drawn)	-39.9%
CC(C)C(C(=O)NCC1CCCO1)N(C(=O)CNS(=O)(=O)c1ccccc1)c1ccc(F)cc1 (stereo not drawn)	13.8%
CC(Sc1ccc(S(=O)(=O)N2CCN(C)CC2)cn1)C(=O)NC1CCCCC1 (stereo not drawn)	-2.98%
Cc1cccc(NC(=O)c2onc3c2CCCC3)c1C	7.58%
Cc1noc(C)c1CSCC(=O)Nc1ccc(Br)cc1Cl	-27.3%
O=C(O)c1ccc(C(=O)Nc2cccc3ccccc23)c(C(=O)O)c1	16.6%
CC(C)(C)c1ccc(-n2ncc3c2CCCC3NC(=O)CN2CCCCC2=O)cc1 (stereo not drawn)	21.2%
CCOc1ccc(Nc2nc(NCC3CCCO3)c3ccccc3n2)cc1.Cl (stereo not drawn)	-72.3%
O=C(Oc1ccccc1)N1CCCC1	20.8%
CCOP(=S)(OCC)SCC(=O)NC(C(=O)O)C(C)C (stereo not drawn)	7.13%
O=C(Nc1ccc2c(c1)OCCO2)c1cncc(Br)c1	7.82%
O=C(Nc1cccnc1)c1sc(Nc2ccccc2)nc1-c1ccccc1	-0.592%
C=C(c1ccc(O)cc1)c1ccc(O)cc1	-15.5%
Cc1ccc2c(Cl)cc(Cl)c(OCC(=O)NC(C)(C)C)c2n1	-7.42%
CN1CCC(=NNC(=O)C(=O)Nc2cccc(Br)c2)CC1	8.18%
Cc1ccc(NC(=O)c2ccc(=O)n(CC(=O)Nc3c(C)cc(C)cc3C)n2)cc1	-30.9%
O=C(CSc1nc(C(F)(F)F)cc(=O)[nH]1)N1CCOCC1	3.21%
CCOC(=O)c1c(CN2CCN(C)CC2)n(C)c2cc(Br)c(OC)cc12	-50.4%
O=C(COC(=O)CCSc1ccc(Cl)cc1)NCc1ccccc1Cl	-5.97%

Structure (SMILES)	hERG current change (%, negative = inhibition) at 10uM
O=C1C2CCCCC2C(=O)N1c1ccc(NC2CCN(Cc3ccccc3)CC2)c([N+](=O)[O-])c1 (stereo not drawn)	-42.1%
CC(NCc1ccc(OCC(N)=O)cc1)C12CC3CC(CC(C3)C1)C2.Cl (stereo not drawn)	-11.2%
N#CCCn1cc(C(=O)Nc2ccc(F)cc2)c(-c2ccc([N+](=O)[O-])cc2)n1	-57.1%
CC(C)CC(=O)Nc1ccc(OCC(=O)O)cc1	8.76%
CC(=O)c1cccc(NC(=O)CN(Cc2ccccc2)S(C)(=O)=O)c1	0.338%
O=C(N=Nc1c(O)[nH]c2ccccc12)c1cccc(S(=O)(=O)N2CCCCC2)c1	7.99%
COc1ccc(C2CC(C(F)(F)F)n3ncc(C(=O)Nc4c(C)n(C)n(-c5ccccc5)c4=O)c3N2)cc1 (stereo not drawn)	7.57%
COc1ccccc1/C=N/N=C(/N)N[N+](=O)[O-]	-6.54%
COc1ccc(S(N)(=O)=O)cc1N(C)S(=O)(=O)c1ccccc1	22.3%
CCSc1oc(-c2ccccc2)nc1S(=O)(=O)c1ccccc1	-5.75%
Fc1cccc(CCNCc2ccccn2)c1	-6.71%
C[C@@H](CO)NC(=O)c1ccc2c3n(nc2c1)-c1ccc(Cl)cc1CO3	-1.96%
O=C(Nc1nc(-c2ccc3c(c2)OCCO3)cs1)C1CCCC1	-8.69%
Cc1cc(Cl)ccc1OC(C)C(=O)NCCc1ccc2c(c1)OCCO2 (stereo not drawn)	0.31%
O=C(N/N=C/c1ccc(Cl)cc1Cl)C(=O)NC1CC1	17.4%
COc1ccc(/C=C2\SC(=N)N(c3nccs3)C2=O)cc1OC	11.5%
CCc1ccc(C(=O)NNC(=O)c2cccc(N3C(=O)CCC3=O)c2)cc1	17.2%
CCc1cccc(NC(=O)c2cccc3c2C(=O)N(C2CCCCC2)C3)c1	19.4%
Cc1ccc(C)c(NC(=O)COC(=O)c2nc(Cl)ccc2Cl)c1	5.77%
COc1nc(-c2ccc3c(c2)OCO3)n(-c2ccc(NC(=O)CSc3ccccc3)cc2)n1	-31%
O=C(COC(=O)c1ccc[nH]c1=O)Nc1ccc(S(=O)(=O)N2CCCC2)cc1	6.91%
c1ccc2c(c1)[nH]c1c3ccccc3sc21	18.5%
